# Measured values published in PMC4336329 (PLoS ONE, 2015).
# Hit rate of the full screen: of about 310,000 compounds, about 2,200 (0.71%) showed an effect of 50% or more. Effects have a minus sign here. This is one part of the list.
# Target: human ether-à-go-go-related gene (hERG) potassium channel (human, UniProt Q12809)
# Test: primary screen, population patch clamp on CHO cells stably expressing hERG
# Chain of human ether-à-go-go-related gene (hERG) potassium channel (Q12809 whole entry, looked up): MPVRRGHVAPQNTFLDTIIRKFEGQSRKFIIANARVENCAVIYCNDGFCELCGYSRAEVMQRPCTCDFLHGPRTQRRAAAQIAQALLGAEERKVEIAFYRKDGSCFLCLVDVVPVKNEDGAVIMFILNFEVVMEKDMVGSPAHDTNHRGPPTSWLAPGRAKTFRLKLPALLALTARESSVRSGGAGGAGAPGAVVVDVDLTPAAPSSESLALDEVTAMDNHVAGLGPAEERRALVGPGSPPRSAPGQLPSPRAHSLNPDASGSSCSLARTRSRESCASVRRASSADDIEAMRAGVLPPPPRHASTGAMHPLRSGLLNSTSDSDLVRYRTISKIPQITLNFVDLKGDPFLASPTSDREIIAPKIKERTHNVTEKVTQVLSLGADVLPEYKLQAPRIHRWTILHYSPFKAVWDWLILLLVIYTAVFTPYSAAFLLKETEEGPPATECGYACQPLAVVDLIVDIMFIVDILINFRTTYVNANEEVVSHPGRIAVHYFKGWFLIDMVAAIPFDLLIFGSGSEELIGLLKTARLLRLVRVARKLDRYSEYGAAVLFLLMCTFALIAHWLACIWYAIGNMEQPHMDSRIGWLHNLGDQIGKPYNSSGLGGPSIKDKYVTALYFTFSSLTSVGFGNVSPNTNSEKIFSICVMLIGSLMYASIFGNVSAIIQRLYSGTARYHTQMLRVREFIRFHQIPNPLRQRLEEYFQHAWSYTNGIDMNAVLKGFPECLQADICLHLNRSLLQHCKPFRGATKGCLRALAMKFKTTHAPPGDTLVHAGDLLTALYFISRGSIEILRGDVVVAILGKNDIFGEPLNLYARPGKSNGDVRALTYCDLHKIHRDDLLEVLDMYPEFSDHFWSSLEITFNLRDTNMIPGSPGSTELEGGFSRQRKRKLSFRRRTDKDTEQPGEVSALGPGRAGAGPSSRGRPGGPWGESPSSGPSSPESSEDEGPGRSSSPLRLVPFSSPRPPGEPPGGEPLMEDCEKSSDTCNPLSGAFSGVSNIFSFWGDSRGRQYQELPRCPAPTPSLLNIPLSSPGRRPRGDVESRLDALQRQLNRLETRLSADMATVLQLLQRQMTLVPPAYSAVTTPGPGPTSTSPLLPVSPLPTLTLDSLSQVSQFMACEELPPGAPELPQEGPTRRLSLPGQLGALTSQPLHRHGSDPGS
row,Compound,"hERG current change (%, negative = inhibition) at 1uM [%]"
1,CCCCCCC(=O)N/N=C/c1ccc(Br)cc1,8.34
2,CC(C)n1c(NCc2ccccc2O)nc2ccccc21,6.66
3,COC(=O)c1c(NC(=O)c2ccco2)sc(C(=O)N(C)C)c1C,2.37
4,COc1ccc(Cl)cc1S(=O)(=O)N1CCCC(C(=O)N2CCCC2)C1 (centres unmarked),7.93
5,Cc1noc(C)c1S(=O)(=O)N(CC(=O)NC1CCCC1)c1ccc(C(C)C)cc1,14.6
6,Cc1nc2ccccc2c(=O)n1/N=C/c1ccc([N+](=O)[O-])o1,-18.8
7,CCCNc1nc2c(c(=O)[nH]c(=O)n2C)n1CCC(C)C,4.03
8,OC(CN1CCOCC1)Cn1c(-c2cccc(Cl)c2)nc2ccccc21 (centres unmarked),-2.2
9,O=C1CC(C(=O)Nc2ccc(Cl)c(Cl)c2)S/C(=N\N=C\c2ccco2)N1 (centres unmarked),-3.88
10,Cc1ccnc(SCCn2c(N3CC(C)OC(C)C3)nc3c2c(=O)n(C)c(=O)n3C)n1 (centres unmarked),0.925
11,CC1CCN(S(=O)(=O)c2ccc(NC(=O)c3ccco3)cc2)CC1,0.115
12,COc1ccc(OC)c(Nc2nc(-c3cccc([N+](=O)[O-])c3)nc3ccccc23)c1,-1.31
13,COc1ccc(Cn2c(=N)c(C(=O)NCC3CCCO3)cc3c(=O)n4ccccc4nc32)cc1 (centres unmarked),-85
14,C=CCn1c(SCC(=O)c2c(N)n(C)c(=O)n(C)c2=O)nc2sc(C)c(C)c2c1=O,3.31
15,CCCNC(=O)c1noc2c1CCc1ccccc1-2,9.55
16,Cc1noc(C)c1S(=O)(=O)Nc1ccc(C(=O)N2CCC(C)CC2)cc1,1.05
17,COCCN1CCn2c(nc3cc([N+](=O)[O-])ccc32)C1,7.61
18,CC(OC(=O)c1cc2ccccc2cc1O)C(=O)Nc1ccc(S(N)(=O)=O)cc1 (centres unmarked),-3.93
19,O=C(NCc1ccco1)c1cc(NS(=O)(=O)c2cccc([N+](=O)[O-])c2)ccc1O,10.5
20,CCN(c1cccc(C)c1)S(=O)(=O)c1c(C)[nH]c(=O)[nH]c1=O,8.54
21,CCS(=O)(=O)c1ccc2c(c1)N(S(C)(=O)=O)CC(C(=O)NCCOC)O2 (centres unmarked),10.6
22,Cc1ccc(S(=O)(=O)N2CCCCC2)cc1NC(=O)COC(=O)Cc1ccc(Cl)cc1,5.34

row,Compound,"hERG current change (%, negative = inhibition) at 1uM [%]"
1,COc1ccc(-c2c(C)nn3c(N4CCC(C(=O)NCCN(C)C)CC4)cc(C)nc23)cc1OC,2.6
2,CCOc1ccc(CCNC(=O)Cn2c(=O)c3cccn3c3cccnc32)cc1,0.911
3,CCCc1cc(C(=O)NC2CCCCC2)no1,3.58
4,CCC1(C)Cc2c(C#N)c(N)n(-c3ccccc3)c(=S)c2CO1 (centres unmarked),1.51
5,COc1ccc(NC2=C(C(C)=O)C(c3ccc4c(c3)OCO4)C(C(C)=O)C(C)(O)C2)cc1 (centres unmarked),12.2
6,Cc1ccc(CNC(=O)C2CCN(S(=O)(=O)c3c(C)noc3C)CC2)cc1,13.7
7,Nc1ncnc2c1nc(SCCO)n2Cc1ccccc1,9.92
8,O=C(Oc1ccc2c3c(c(=O)oc2c1)CCCC3)c1cccs1,1.04
9,Cc1cc(NC(=O)CSc2nc3c(c(=O)n(C)c(=O)n3C)n2C(C)C)no1,15.3
10,COCCNC(=O)c1onc(CSc2ccc(F)c(F)c2)c1C(=O)NCCOC,12
11,Nc1ccc(C2(c3ccc(N)cc3)CN3CCC2CC3)cc1,4.16
12,Cc1cc(C)nc(Nc2n[nH]c(-c3ccccc3Cl)n2)n1,10.1
13,O=C(/C=C/c1ccc(Cl)cc1)N1CCN(c2ccc([N+](=O)[O-])c(N3CCOCC3)c2)CC1,-11.1
14,COc1ccc(-n2ncc3c(NCc4ccco4)ncnc32)cc1,2.22
15,COC(=O)C1CCN(C(=O)c2cc(-c3ccc(Cl)s3)nc3ccccc23)CC1,-0.0413
16,Cl.O=C(Nc1nc2n(n1)C(c1ccccc1)C=C(c1ccccc1)N2)c1ccco1 (centres unmarked),4.12
17,c1ccn2cc(-c3ccc4c(c3)OCCO4)nc2c1,4.22
18,Oc1c(N=NC(=S)Nc2ccccc2F)c2ccccc2n1Cc1ccccc1,20.3
19,CCc1ccc(C(O)(CC(C)C)C(CN2CCOCC2)c2ccccc2)cc1.Cl (centres unmarked),13.1
20,CN(C)c1ccc(C(CNC(=O)c2ccccc2F)c2c[nH]c3ccccc23)cc1 (centres unmarked),-7
21,Clc1ccc(C2=Nn3c(Cn4nnc5ccccc54)nnc3SC2)cc1,15.3
22,COc1ccc(Cn2c(CCC(=O)NCc3ccco3)nc3cccnc32)cc1,-0.605

row,Compound,"hERG current change (%, negative = inhibition) at 1uM [%]"
1,Cc1cc(C)n(CC(=O)c2cccc(N)c2)n1,10.6
2,CC1CCCN(C(=O)CNC(=O)c2ccco2)C1 (centres unmarked),8.22
3,Cc1ccc(S(=O)(=O)CCC(=O)OCC(=O)Nc2ncc(Cl)cc2Cl)cc1,4.52
4,O=C(Oc1ccc(Cl)cc1)N1CCOCC1,13.3
5,COc1ccc2cc3[n+](cc2c1OC)CCc1cc2c(cc1-3)OCO2.Cl,12
6,COC(=O)c1ccc(NC(=O)c2ccc(NC(=O)c3ccco3)cc2)cc1,20.7
7,C[N+](C)(C)CCOP(=O)([O-])OP(=O)([O-])OC[C@H]1O[C@@H](n2ccc(N)nc2=O)[C@H](O)[C@@H]1O.[Na+],13.3
8,CCCCNc1nc(NC)nc(Cl)c1SC,7.23
9,CC(C)n1c(C(=O)OCC(=O)NCc2ccc3c(c2)OCO3)cc2sccc21,22.5
10,CCc1ccc(N(CC(=O)NCc2ccco2)C(=O)CCC(=O)Nc2nccs2)cc1,9.83
11,CCOC(=O)CC1C(=O)NCCN1S(=O)(=O)c1ccc(Cl)cc1 (centres unmarked),-3.23
12,COc1ccc(NC(=O)n2ncc3cc(Cl)ccc32)cc1OC,21.5
13,CCCc1cc(=O)[nH]c(SCC(=O)Nc2ncc(S(=O)(=O)c3ccc([N+](=O)[O-])cc3)s2)n1,5.75
14,COc1ccc2[nH]c(=O)c(CN(Cc3cccs3)C(=S)NCC3CCCO3)cc2c1 (centres unmarked),4.53
15,CCc1ccc(NC(=O)N(CCN2CCOCC2)Cc2ccc3c(c2)CCCN3CC)cc1,-4.1
16,CN1CCN(C(=O)/C=C/c2ccc(Cl)cc2)CC1,-10.4
17,O=C1CN(C(=O)NCCC(=O)NC2CCCCC2)c2ccccc2N1,-0.472
18,COc1cccc(C2=CC(=O)CC(C)(C)C2)c1OC,3.81
19,O=C(CSc1nc2cc(Cl)ccc2s1)c1ccco1,8.73
20,CCOc1ccc(NC(=O)C2CCCN2C(=O)NC2CCCCC2)cc1 (centres unmarked),4.63
21,Cc1cccc([C@@H]2[C@@H]3C(=O)N(Cc4ccccc4)C(=O)[C@@H]3[C@]3(Cc4ccccc4)C(=O)N(c4ccc(C(F)(F)F)cc4)C(=O)N23)c1,7.92
22,CCCCc1nc(N2CCNCC2)c(C#N)c2c1CSC(C)(C)C2,-22.2

row,Compound,"hERG current change (%, negative = inhibition) at 1uM [%]"
1,COc1ccc(S(=O)(=O)N2CCCC(C(=O)NC3CC3)C2)cc1Cl (centres unmarked),14
2,c1ccc(N2CCN(c3nnnn3-c3ccccc3)CC2)cc1,-0.0293
3,O=C1N(Cc2ccc(F)cc2Cl)c2ccccc2C12OCCCO2,-0.0384
4,COc1ccccc1N(CC(=O)NCCc1ccccc1)S(C)(=O)=O,16.5
5,COc1ccccc1N1CCN(C(=O)CN(C)S(=O)(=O)c2cc(C)ccc2OC)CC1,5.55
6,COc1ccc(C2=NN3C(C2)c2ccccc2OC32C(=O)N(C)c3ccccc32)cc1 (centres unmarked),6.07
7,CNC(=S)NNC(=O)c1ccc2c(c1)OCO2,13.4
8,CC1CCN(S(=O)(=O)c2cccc(C(=O)Nc3ccccc3)c2)CC1,-1.01
9,NC(=O)C1CCN(c2ccc([N+](=O)[O-])cc2Cl)CC1,14.5
10,Cc1nc(NCc2ccc3c(c2)OCO3)c2nnn(Cc3ccccc3)c2n1,13.3
11,CCOC(=O)c1cc(NC(=O)OC)c(C)nc1C,9.79
12,Cn1nccc1C(=O)N1CCCC(N2CCN(Cc3ccc4c(c3)OCO4)CC2)C1 (centres unmarked),7.44
13,COc1ccc(CCN2CC(C(=O)NCCN3CCNC3=O)CCC2=O)cc1 (centres unmarked),5.52
14,c1ccc(N2CCN(Cc3nnnn3C3CCCCC3)CC2)cc1,8.27
15,CC(C)(C)OC(=O)N1CC(O)CC1C(=O)OCC(=O)c1ccccc1 (centres unmarked),4.69
16,O=C(Nc1ccc(N2C(=O)C3C4C=CC(C4)C3C2=O)cc1Cl)c1cccs1 (centres unmarked),9.99
17,CCOCCCNCC(=O)Nc1ccccc1N1CCOCC1.O=C(O)C(=O)O,-5.77
18,O=C(Nc1ccc(-c2n[nH]c(=S)o2)cc1)c1ccccc1Br,15
19,O=C(Cc1ccc(-n2cccc2)cc1)NCc1cccs1,3.78
20,Cc1ccc(S(=O)(=O)N2[C@@H](c3ccc(Cl)cc3)C(C(=O)O)=CC[C@H]2c2cccc(C)c2)cc1,15.3
